# Experimental data as given in the supplement of paper PMC8728848.
# Some of the results follow.
# B1: PMA (Polygonatum multiflorum) (protein)
# chain: LLTTTLFVFISSTRSLASTNVLYSDVGNAILNAKESLIYGDYRLDMQSDCNLVLYNKAAPYWASGTRWSWGGNCHLNLQSNGELVMYAYLGRTRIAIWRSGIISATGSYALVLKYDGALHVHGPSLWSTNATGPTTPTTASWSIDSTLWSGDVATIGPTIANGDYKLELLDTCNLTLSNTKTGQVLWYTNTTDWVHDCYVNIEGNGELKIKYLGGATLWSNKVGAGYTNNYVLGLRPDGKLDTYNAPIWSPTIGPGVHVAPAVYNASSNAVAAEGNGEKIAMVTGRAKNST
# Columns and labels:
# Assay in all cases: glycan array binding signal (z-score within array); higher = stronger binding
# Conditions in all cases: glycan notation: IUPAC condensed, linker removed
# [1] = biological target: Gal(b1-3)[Fuc(a1-4)]GlcNAc(b1-3)Gal(b1-4)[Fuc(a1-3)]GlcNAc
# In short: (§1)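 Glycan array binding is given as a within-array Z-score, which can be read as non-binding when negative. The arrays, 3228 of them, came from the Consortium for Functional Glycomics database and were retained only where the protein sequence was available. Z-scores were averaged across arrays of the same protein sequence at different concentrations or buffers and across linkers.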
# [2] = biological target: Gal(b1-3)[GlcNAc(b1-6)]GalNAc
# In short: as §1
# [3] = biological target: Gal(b1-3)[Neu5Ac(a2-6)]GalNAc
# In short: as §1
# [4] = biological target: Gal(b1-3)[Neu5Ac(a2-6)]GlcNAc(b1-6)Gal(b1-4)Glc
# In short: as §1
# [5] = biological target: Gal(b1-3)[Neu5Ac(b2-6)]GalNAc
# In short: as §1
# [6] = biological target: Gal(b1-4)GalNAc(a1-3)[Fuc(a1-2)]Gal(b1-4)GlcNAc
# In short: as §1
# [7] = biological target: Gal(b1-4)GalNAc(b1-3)[Fuc(a1-2)]Gal(b1-4)GlcNAc
# In short: as §1
# [8] = biological target: Gal(b1-4)Glc
# In short: as §1
# [9] = biological target: Gal(b1-4)Glc6S
# In short: as §1
# [10] = biological target: Gal(b1-4)GlcNAc
# In short: as §1
# [11] = biological target: Gal(b1-4)GlcNAc(b1-2)Man(a1-3)[Gal(b1-4)GlcNAc(b1-2)Man(a1-6)]Man(b1-4)GlcNAc(b1-4)GlcNAc
# In short: as §1
# [12] = biological target: Gal(b1-4)GlcNAc(b1-3)Gal(b1-4)Glc
# In short: as §1
# [13] = biological target: Gal(b1-4)GlcNAc(b1-3)Gal(b1-4)GlcNAc
# In short: as §1
# [14] = biological target: Gal(b1-4)GlcNAc(b1-3)Gal(b1-4)GlcNAc(b1-3)Gal(b1-4)GlcNAc
# In short: as §1
# [15] = biological target: Gal(b1-4)GlcNAc(b1-3)Gal(b1-4)[Fuc(a1-3)]GlcNAc(b1-3)Gal(b1-4)[Fuc(a1-3)]GlcNAc
# In short: as §1
# [16] = biological target: Gal(b1-4)GlcNAc(b1-3)GalNAc
# In short: as §1
# [17] = biological target: Gal(b1-4)GlcNAc(b1-3)[Gal(b1-4)GlcNAc(b1-6)]GalNAc
# In short: as §1
# [18] = biological target: Gal(b1-4)GlcNAc(b1-6)Gal(b1-4)GlcNAc(b1-6)GalNAc
# In short: as §1
# [19] = biological target: Gal(b1-4)GlcNAc(b1-6)GalNAc
# In short: as §1
# [20] = biological target: Gal(b1-4)GlcNAc(b1-6)[Gal(b1-3)]GalNAc
# In short: as §1
# [21] = biological target: Gal3S(b1-3)GalNAc
# In short: as §1
# [22] = biological target: Gal3S(b1-3)GlcNAc
# In short: as §1
# [23] = biological target: Gal3S(b1-3)[Fuc(a1-4)]GlcNAc
# In short: as §1
# [24] = biological target: Gal3S(b1-4)Glc
# In short: as §1
# [25] = biological target: Gal3S(b1-4)Glc6S
# In short: as §1
# [26] = biological target: Gal3S(b1-4)GlcNAc
# In short: as §1
# [27] = biological target: Gal3S(b1-4)GlcNAc6S
# In short: as §1
# [28] = biological target: Gal3S6S(b1-4)GlcNAc
# In short: as §1
# [29] = biological target: Gal3S6S(b1-4)GlcNAc6S
# In short: as §1
# [30] = biological target: Gal4S(b1-4)GlcNAc
# In short: as §1
# [31] = biological target: Gal4S6S(b1-4)GlcNAc
# In short: as §1
# [32] = biological target: Gal6S(b1-4)Glc
# In short: as §1
# [33] = biological target: Gal6S(b1-4)Glc6S
# In short: as §1
# [34] = biological target: Gal6S(b1-4)GlcNAc
# In short: as §1
# [35] = biological target: GalNAc(a1-3)Gal
# In short: as §1
# [36] = biological target: GalNAc(a1-3)GalNAc
# In short: as §1
# [37] = biological target: GalNAc(b1-3)Gal(a1-4)Gal(b1-4)GlcNAc
# In short: as §1
# [38] = biological target: GalNAc(b1-3)GalNAc
# In short: as §1
# [39] = biological target: GalNAc(b1-4)GlcNAc
# In short: as §1
# [40] = biological target: Glc(a1-4)Glc
# In short: as §1
# [41] = biological target: Glc(a1-6)Glc(a1-6)Glc
# In short: as §1
# [42] = biological target: Glc(b1-4)Glc
# In short: as §1
# [43] = biological target: Glc(b1-6)Glc
# In short: as §1
# [44] = biological target: GlcA(b1-3)Gal
# In short: as §1
# [45] = biological target: GlcA(b1-6)Gal
# In short: as §1
# [46] = biological target: GlcNAc(a1-3)Gal(b1-4)GlcNAc
# In short: as §1
# [47] = biological target: GlcNAc(a1-6)Gal(b1-4)GlcNAc
# In short: as §1
# [48] = biological target: GlcNAc(b1-2)Gal(b1-3)GalNAc
# In short: as §1
# [49] = biological target: GlcNAc(b1-2)Man(a1-3)[GlcNAc(b1-2)Man(a1-6)]Man(b1-4)GlcNAc(b1-4)GlcNAc
# In short: as §1
# [50] = biological target: GlcNAc(b1-3)Gal
# In short: as §1
# [51] = biological target: GlcNAc(b1-3)Gal(b1-3)GalNAc
# In short: as §1
# [52] = biological target: GlcNAc(b1-3)Gal(b1-4)Glc
# In short: as §1
# [53] = biological target: GlcNAc(b1-3)Gal(b1-4)GlcNAc
# In short: as §1
# [54] = biological target: GlcNAc(b1-3)Gal(b1-4)GlcNAc(b1-3)Gal(b1-4)GlcNAc
# In short: as §1
# [55] = biological target: GlcNAc(b1-3)GalNAc
# In short: as §1
# [56] = biological target: GlcNAc(b1-3)[GlcNAc(b1-6)]Gal(b1-4)GlcNAc
# In short: as §1
# [57] = biological target: GlcNAc(b1-3)[GlcNAc(b1-6)]GalNAc
# In short: as §1
# [58] = biological target: GlcNAc(b1-3)[GlcNAc(b1-6)]GlcNAc(b1-4)GlcNAc
# In short: as §1
# [59] = biological target: GlcNAc(b1-4)Gal(b1-4)GlcNAc
# In short: as §1
# [60] = biological target: GlcNAc(b1-4)GlcNAc(b1-4)GlcNAc
# In short: as §1
binder,measurement,setting,value
B1,glycan array binding signal (z-score),[1],-0.251
same,glycan array binding signal (z-score),[2],-0.235
same,glycan array binding signal (z-score),[3],-0.25
same,glycan array binding signal (z-score),[4],-0.259
same,glycan array binding signal (z-score),[5],-0.251
same,glycan array binding signal (z-score),[6],-0.251
same,glycan array binding signal (z-score),[7],-0.238
same,glycan array binding signal (z-score),[8],-0.241
same,glycan array binding signal (z-score),[9],-0.246
same,glycan array binding signal (z-score),[10],-0.068
same,glycan array binding signal (z-score),[11],7.37
same,glycan array binding signal (z-score),[12],-0.256
same,glycan array binding signal (z-score),[13],-0.253
same,glycan array binding signal (z-score),[14],-0.197
same,glycan array binding signal (z-score),[15],-0.246
same,glycan array binding signal (z-score),[16],-0.237
same,glycan array binding signal (z-score),[17],-0.238
same,glycan array binding signal (z-score),[18],-0.205
same,glycan array binding signal (z-score),[19],-0.218
same,glycan array binding signal (z-score),[20],-0.247
same,glycan array binding signal (z-score),[21],-0.258
same,glycan array binding signal (z-score),[22],-0.25
same,glycan array binding signal (z-score),[23],-0.243
same,glycan array binding signal (z-score),[24],-0.248
same,glycan array binding signal (z-score),[25],-0.243
same,glycan array binding signal (z-score),[26],-0.247
same,glycan array binding signal (z-score),[27],-0.232
same,glycan array binding signal (z-score),[28],-0.252
same,glycan array binding signal (z-score),[29],-0.239
same,glycan array binding signal (z-score),[30],-0.248
same,glycan array binding signal (z-score),[31],-0.223
same,glycan array binding signal (z-score),[32],-0.257
same,glycan array binding signal (z-score),[33],-0.242
same,glycan array binding signal (z-score),[34],-0.244
same,glycan array binding signal (z-score),[35],-0.253
same,glycan array binding signal (z-score),[36],-0.24
same,glycan array binding signal (z-score),[37],-0.236
same,glycan array binding signal (z-score),[38],-0.2
same,glycan array binding signal (z-score),[39],-0.246
same,glycan array binding signal (z-score),[40],-0.238
same,glycan array binding signal (z-score),[41],-0.183
same,glycan array binding signal (z-score),[42],-0.221
same,glycan array binding signal (z-score),[43],0.21
same,glycan array binding signal (z-score),[44],-0.254
same,glycan array binding signal (z-score),[45],-0.257
same,glycan array binding signal (z-score),[46],-0.263
same,glycan array binding signal (z-score),[47],-0.257
same,glycan array binding signal (z-score),[48],-0.242
same,glycan array binding signal (z-score),[49],5.03
same,glycan array binding signal (z-score),[50],-0.263
same,glycan array binding signal (z-score),[51],-0.241
same,glycan array binding signal (z-score),[52],-0.237
same,glycan array binding signal (z-score),[53],-0.244
same,glycan array binding signal (z-score),[54],-0.135
same,glycan array binding signal (z-score),[55],-0.259
same,glycan array binding signal (z-score),[56],-0.243
same,glycan array binding signal (z-score),[57],-0.257
same,glycan array binding signal (z-score),[58],-0.247
same,glycan array binding signal (z-score),[59],-0.257
same,glycan array binding signal (z-score),[60],-0.254
